Screen size: about 360,000 compounds; about 2,600 (0.72%) were called active. The shares of active, inactive and inconclusive entries below differ from those in the screen. Calls follow the shape of the dose curve; as a rule, active = well fitted inhibition curve with a large enough effect; inconclusive = small, poorly fitted or top-dose-only effect; inactive = no such curve, though single readings can be large or run the other way. A potency beside an inconclusive call is a rough fit, not a confirmed value.
Assay: Primary qHTS for Inhibitors of ATXN expression; also: nearly all actives have a fitted effect of over 55% in size
Conditions: HEK-293 ATXN2-luciferase reporter, luminescence, 24 h; activity change, negative = inhibition: at 57 µM (top of the series)
Outline: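 qHTS (up to 57 uM final) was run with 24 h compound exposure of reporter cells at 37 °C. Each well was multiplexed: SteadyGlo luminescence measured ATXN2-luciferase expression after a fluorogenic Gly-Phe-AFC viability readout (25 uM final).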
For `COc1cccc(NC(=S)NCc2cccs2)c1`, the “activity change, negative = inhibition” value was inactive: 33.5%. In the case of `CC(=O)c1ccc(N2CCC(c3cc(-c4ccc(Cl)cc4Cl)n[nH]3)CC2)c([N+](=O)[O-])c1`, the Potency was inconclusive: 28.2 µM [inhibitor, partial curve]. For `CN(C)c1ccc(/C=C2\SC(=O)N(CCc3nnc(N)s3)C2=O)cc1`, the Potency was active: 3.98 µM. With `COc1ccc(S(=O)(=O)N2CCN(CCc3ccccc3)CC2)c(OC)c1` the Potency was inconclusive: 3.16 µM [inhibitor, partial curve, poor fit]. With `Cc1cc(C(=O)N2CCC(Cc3ccccc3)CC2)ccc1[N+](=O)[O-]` the Potency was inconclusive: 15.8 µM [inhibitor, partial curve, poor fit]. In the case of `CCN(CC)CCNC(=O)c1ccc(NC(=O)c2cc(-c3ccco3)nc3ccccc23)cc1`, the Potency was inconclusive: 25.1 µM [inhibitor, single point]. With `C[C@@H](C(=O)NCCc1ccc(F)cc1)N1C(=O)N2CCc3c([nH]c4ccccc34)[C@@]2(C)C1=O` the Potency was inconclusive: 28.2 µM [inhibitor, partial curve, poor fit]. With `CCOc1cc(C(=O)OCc2cccc(OC)c2OC)ccc1OCC(=O)N1CCOCC1` the Potency was inconclusive: 0.562 µM [inhibitor, partial curve, poor fit]. For `CC[C@@]1(O)C(=O)OCc2c1cc1n(c2=O)Cc2c-1nc1ccccc1c2/C=N/OC(C)(C)C`, the Potency was active: 0.0005 µM. For `COc1ccccc1CN1C[C@@H]2C[C@@H](c3ccc(C)c(C)c3)N3CCC[C@@]23C1=O`, the “activity change, negative = inhibition” value was inactive: -32.9%. In the case of `Cc1cccc2[nH]c3c(N4CC=C(c5ccc(F)cc5)CC4)ncnc3c12`, the Potency was inconclusive: 29.9 µM [inhibitor, single point]. For `CCN(C(=O)COC(=O)c1cc2ccccc2cc1OC)c1c(N)n(Cc2ccccc2)c(=O)[nH]c1=O`, the “activity change, negative = inhibition” value was inactive: -11.6%. For `CCN(CC)S(=O)(=O)c1cccc(C(=O)N2CCCc3ccccc32)c1`, the Potency was inconclusive: 1.68 µM [inhibitor, partial curve, poor fit]. With `CN1CCN(c2ccccc2NC(=O)c2ccc([N+](=O)[O-])o2)CC1` the Potency was inconclusive: 15.8 µM [inhibitor, partial curve]. With `CCCCC(=O)Nc1ccc(C(=O)Nc2ccc(OC)cc2[N+](=O)[O-])cc1` the Potency was inconclusive: 22.4 µM [inhibitor, single point]. In the case of `CC(C)NC(=S)NC(c1ccccc1)(c1ccccc1)c1ccccc1`, the Potency was inconclusive: 22.4 µM [inhibitor, single point]. With `COc1ccc(C(=O)Nc2ccc(NC(=O)c3ccco3)cc2)cc1` the Potency was inconclusive: 39.8 µM [inhibitor, single point]. In the case of `Cc1c(C(=O)NCc2cccc(C(F)(F)F)c2)sc(=O)n1Cc1ccccc1F`, the Potency was inconclusive: 20 µM [inhibitor, partial curve, poor fit]. With `COC(=O)COc1ccc(NS(=O)(=O)c2cccc([N+](=O)[O-])c2)cc1` the “activity change, negative = inhibition” value was inactive: -27.2%. With `Cc1nc(N2CCN(C(=O)c3ccco3)CC2)[nH]c(=O)c1C` the “activity change, negative = inhibition” value was inactive: 0.794%. In the case of `O=S(=O)(c1ccc(SCCOc2ccc(Cl)cc2)nc1)N1CCCC1`, the Potency was inconclusive: 14.1 µM [inhibitor, partial curve]. With `COc1cccc(NC(=O)Cn2nnc(-c3ccccc3N)n2)c1` the “activity change, negative = inhibition” value was inactive: 1.21%. In the case of `Cc1ccccc1-c1nc(-c2ccccn2)no1`, the Potency was inconclusive: 10 µM [inhibitor, partial curve, poor fit]. With `CSc1nnc(NC(=O)c2nc(S(=O)(=O)Cc3cccc(C)c3)ncc2Cl)s1` the Potency was active: 28.2 µM. With `CCN(c1ccccc1)S(=O)(=O)c1ccc(NC(=O)c2nc(S(C)(=O)=O)ncc2Cl)cc1` the Potency was active: 12.6 µM. In the case of `CCOC(=O)c1cnc2ccc(OCC)cc2c1NCc1ccccc1OC`, the Potency was inconclusive: 10 µM [inhibitor, partial curve]. In the case of `O=C(Nc1nc2ccccc2[nH]1)c1ccc(F)cc1`, the Potency was inconclusive: 20 µM [inhibitor, single point]. In the case of `OC(CNCC1CCCO1)Cn1c2ccccc2c2ccccc21` (stereo not drawn), the “activity change, negative = inhibition” value was inactive: -13.1%. With `COc1cc(NC(=O)c2ccno2)cc(C(=O)Nc2cccc(C(F)(F)F)c2)c1` the Potency was inconclusive: 25.1 µM [inhibitor, single point]. For `O=S(=O)(c1ccc(Cl)cc1)N1CCN(C(=S)Nc2ccccc2F)CC1`, the “activity change, negative = inhibition” value was inactive: -16.1%. In the case of `Cc1ccc(N2CCN(C(=O)Cn3ncc4c([nH]c5ccc(C)cc54)c3=O)CC2)c(C)c1`, the “activity change, negative = inhibition” value was inactive: -1.78%. With `CN(c1ccccc1)S(=O)(=O)c1cccc(NC(=O)CSc2n[nH]c(N)n2)c1` the “activity change, negative = inhibition” value was inactive: -11.5%. With `CCn1c(SCC(N)=O)nc2sc3c(c2c1=O)CCCC3` the “activity change, negative = inhibition” value was inactive: 0.617%. With `NC(=O)CC(NC(=O)Cc1ccc(Br)cc1)c1ccc(NC2CC3CCC2C3)c([N+](=O)[O-])c1` (stereo not drawn) the Potency was inconclusive: 28.2 µM [inhibitor, single point]. With `COc1ccc(C)cc1NC(=O)/C=C/c1ccc(OC)c(S(=O)(=O)N2CCOCC2)c1` the Potency was inconclusive: 17.8 µM [inhibitor, partial curve, poor fit]. For `COc1ccc(Nc2ncnc3sccc23)cc1OC`, the “activity change, negative = inhibition” value was inactive: 4.67%. For `Cc1cc(C)c2cc(C#N)c(N3CCCN(C(=S)NCCCN(C)C)CC3)nc2c1`, the Potency was inconclusive: 2.82 µM [inhibitor, partial curve, poor fit]. For `CC(Oc1ccccc1Cl)C(=O)Nc1ccc(S(=O)(=O)N2CCCC2)cc1` (stereo not drawn), the Potency was inconclusive: 28.2 µM [inhibitor, single point]. With `CCN(CC)S(=O)(=O)c1cc([N+](=O)[O-])ccc1N=Nc1c(O)[nH]c2ccccc12` the “activity change, negative = inhibition” value was inactive: -19.1%. With `CC1CC(C)(C)Nc2ccc(OC(=O)c3ccco3)cc21` (stereo not drawn) the Potency was inconclusive: 22.4 µM [inhibitor, partial curve, poor fit]. For `Oc1cccc(C(O)CNCc2ccc(-c3ccccc3)cc2)c1` (stereo not drawn), the Potency was inconclusive: 28.2 µM [inhibitor, single point]. For `NS(=O)(=O)c1ccc(CCNC(=O)c2ccc(C#CC3(O)CCCCC3)cc2)cc1`, the Potency was inconclusive: 20 µM [inhibitor, single point]. For `O=C(N/N=C/c1ccccc1F)c1cccc2ccccc12`, the “activity change, negative = inhibition” value was inactive: 5.95%.
% is scaled to controls: 0 for no effect and ±100 for the full control effect; potency is read from the fitted curve at half-maximal effect; tags tell the direction and shape of the fitted curve.
